{"source": "paper PMC7819943", "about": "“Rice protein-binding microarrays: a tool to detect cis-acting elements near promoter regions in rice”", "note": "The list shows a part of the results."}
{"target": "T1, OsWOX13 (Oryza sativa, UniProt Q5QMM3 1-267)", "T1 sequence": "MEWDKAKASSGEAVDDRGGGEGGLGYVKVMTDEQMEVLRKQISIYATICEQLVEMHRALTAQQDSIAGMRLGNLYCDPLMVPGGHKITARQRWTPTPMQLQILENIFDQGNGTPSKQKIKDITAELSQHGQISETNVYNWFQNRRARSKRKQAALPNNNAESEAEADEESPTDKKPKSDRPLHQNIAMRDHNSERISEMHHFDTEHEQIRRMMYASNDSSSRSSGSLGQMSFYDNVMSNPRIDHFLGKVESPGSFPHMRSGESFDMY", "experiment": "protein-binding microarray (RPBM); PBS, 2% BSA, 51.3 ng/ul salmon testes DNA, 50 uM zinc acetate, 200 nM TF, 25 C, 1 h; high values mean tight binding", "settings": "protein: recombinant; tags: N-terminal polyhistidine and DsRed monomer fusion (pET32a); label: CyDye5-dUTP incorporated in the synthesized complementary strand; 3' TTTTT single-stranded linker to array surface; dsDNA, one strand shown", "in_short": "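Binding signal is defined as the fluorescence intensity of each feature in arbitrary units, read on an Axon 4000B scanner. Transcription factors with N-terminal polyhistidine and DsRed fusions came from E. coli BL21-CodonPlus and were purified on Ni–NTA. They were incubated at 200 nM for 1 h at 25 °C on a custom Agilent array that had been made double-stranded with Cy5-dUTP, with 50 µM zinc acetate present, and the array was washed.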"}
{"sequence": "AGTAGATAGATACCTCATCCCCATGTAAACAACCGATGCCCGGAGTCACCTAGTGCAG", "binding signal": "3150 fluorescence intensity (a.u.)"}
{"sequence": "GCACATAATTAAGCGCATTAACACCCTAGTAGAATTGTTTCGGAGTCACCTAGTGCAG", "binding signal": "19600 fluorescence intensity (a.u.)"}
{"sequence": "TAGAAAATTGGTAAGATTAGTCGACATGTGATCCTCCAGCCGGAGTCACCTAGTGCAG", "binding signal": "17000 fluorescence intensity (a.u.)"}
{"sequence": "AGAAAACAATTAAATTTTAGTCGTGCCTGACAAGCTAACGCGGAGTCACCTAGTGCAG", "binding signal": "3810 fluorescence intensity (a.u.)"}
{"sequence": "TGAGGTGACGAGATTGGAGGCGAAGGCTAGGAGAGGCTTGCGGAGTCACCTAGTGCAG", "binding signal": "3430 fluorescence intensity (a.u.)"}
{"sequence": "TTATCAGCCAAAATTTAAATTTTCAACCTTAAATTTGAGTCGGAGTCACCTAGTGCAG", "binding signal": "5940 fluorescence intensity (a.u.)"}
{"sequence": "ACCAGTAAGGTGGTGATTGGGCTCACCACCTTTTACGCCCCGGAGTCACCTAGTGCAG", "binding signal": "4320 fluorescence intensity (a.u.)"}
{"sequence": "GTTTTGTGTTTCTCCTCTAGTAATTGAAAAGGTTGCTTATCGGAGTCACCTAGTGCAG", "binding signal": "3960 fluorescence intensity (a.u.)"}
{"sequence": "AATAATTACTTAAACTTTTAAATAAGACGAATGGTCAAACCGGAGTCACCTAGTGCAG", "binding signal": "17900 fluorescence intensity (a.u.)"}
{"sequence": "CCACTAATTTCTTCTCTCTTTCTCTCTCTCTCCGCGCCCTCGGAGTCACCTAGTGCAG", "binding signal": "28100 fluorescence intensity (a.u.)"}
{"sequence": "CTTGCTCTAATTAATTTCCTACTACAACAGTTTAATTAATCGGAGTCACCTAGTGCAG", "binding signal": "4650 fluorescence intensity (a.u.)"}
{"sequence": "TTTGACATTTCGATTGGAAATTTGAAGCTTAAACAATAGACGGAGTCACCTAGTGCAG", "binding signal": "6320 fluorescence intensity (a.u.)"}
{"sequence": "AGTGATTCTATGCTAAATGGCACTCACCTTTCTAACGGTCCGGAGTCACCTAGTGCAG", "binding signal": "3210 fluorescence intensity (a.u.)"}
{"sequence": "CTGATTTGTATTGACATGAGGTTCTTTTGGCGTTGTGAATCGGAGTCACCTAGTGCAG", "binding signal": "33300 fluorescence intensity (a.u.)"}
{"sequence": "TTTGCTTCCTTAACGTGTGATGATTGCTGGCACAAGCCACCGGAGTCACCTAGTGCAG", "binding signal": "6120 fluorescence intensity (a.u.)"}
{"sequence": "TTTAATGAAATTTTATCTGGCCCCATTTTATATTGGAATTCGGAGTCACCTAGTGCAG", "binding signal": "12100 ± 990 fluorescence intensity (a.u.)"}
{"sequence": "CAGGATAATTTGGTCGGTTAATACCACTACATAGAGGCATCGGAGTCACCTAGTGCAG", "binding signal": "11700 fluorescence intensity (a.u.)"}
{"sequence": "AATCAATATATCAATTAAAATTTTCGGACTTTATCAAATGCGGAGTCACCTAGTGCAG", "binding signal": "20400 fluorescence intensity (a.u.)"}
{"sequence": "AAACAGAACATAATTGTGATACACTTTTCGCTGATGGGTACGGAGTCACCTAGTGCAG", "binding signal": "4900 fluorescence intensity (a.u.)"}
{"sequence": "GTCCAACAGAAATGACTGAAATCATCAAGCACCACTAAGTCGGAGTCACCTAGTGCAG", "binding signal": "4050 fluorescence intensity (a.u.)"}
{"sequence": "ATTTCAAATTTAAATTTGAATTATATCCGATTTCAAATTTCGGAGTCACCTAGTGCAG", "binding signal": "27500 fluorescence intensity (a.u.)"}
{"sequence": "ACAAACTATTCCTAATTAATAGATAACTTGCCATGCCGCACGGAGTCACCTAGTGCAG", "binding signal": "14500 fluorescence intensity (a.u.)"}
{"sequence": "CCCTTTTAATTTCCTGTAAACCAGTCCAGCCCAATAGGTACGGAGTCACCTAGTGCAG", "binding signal": "7920 fluorescence intensity (a.u.)"}
{"sequence": "GTCTTAACATAATAAATACCACAGTCTAGCTTTTATGATACGGAGTCACCTAGTGCAG", "binding signal": "3300 fluorescence intensity (a.u.)"}
{"sequence": "TTTGATTGTCTGGGCTATTAAATAGTCCTTCACAATCTTGCGGAGTCACCTAGTGCAG", "binding signal": "42400 fluorescence intensity (a.u.)"}
{"sequence": "TTATAATATAATATTTTGATAATTTTATCCAAATTTTGGACGGAGTCACCTAGTGCAG", "binding signal": "4490 fluorescence intensity (a.u.)"}
{"sequence": "AGTAAGGGGAGATGATTGATTGCGCTATCGATCTCCCACCCGGAGTCACCTAGTGCAG", "binding signal": "40400 fluorescence intensity (a.u.)"}
{"sequence": "ATATGAAATTTAAAATTAGTTATTAGCAAGATGCAGTTACCGGAGTCACCTAGTGCAG", "binding signal": "4430 fluorescence intensity (a.u.)"}
{"sequence": "TAACAAAACAAATTACAGATTCTGTCTGTAAACTGCGAGACGGAGTCACCTAGTGCAG", "binding signal": "4160 fluorescence intensity (a.u.)"}
{"sequence": "TTGTAAATGACTGATTTGGATGTGAATTAATCGTTGTTGTCGGAGTCACCTAGTGCAG", "binding signal": "28400 fluorescence intensity (a.u.)"}
{"sequence": "TTCAGTCAATCCACACTGTAATCCCCATTGCTAGTATCTCCGGAGTCACCTAGTGCAG", "binding signal": "4410 fluorescence intensity (a.u.)"}
{"sequence": "TCTAAGATTGAATTGCACTTTGACTATCTTTCATTATCAACGGAGTCACCTAGTGCAG", "binding signal": "35100 fluorescence intensity (a.u.)"}
{"sequence": "GATAATGATTGGGCTTCTAAATAATGGGTAAGACTTGTCTCGGAGTCACCTAGTGCAG", "binding signal": "35000 fluorescence intensity (a.u.)"}
{"sequence": "TTAACAATGATGATTTATCTCTTATGTATTTGTATAATTTCGGAGTCACCTAGTGCAG", "binding signal": "6330 fluorescence intensity (a.u.)"}
{"sequence": "GTTTAATTTCCTAATTTTGCTCAGGTCTACAACTCTAAATCGGAGTCACCTAGTGCAG", "binding signal": "18000 fluorescence intensity (a.u.)"}
{"sequence": "CCCAAGACTGATATGGATGAAATATACGATCATGCCATATCGGAGTCACCTAGTGCAG", "binding signal": "3360 fluorescence intensity (a.u.)"}
{"sequence": "ATTTACATTAATTTATTAGGGTTTTATTTTGCTCTTACACCGGAGTCACCTAGTGCAG", "binding signal": "13000 fluorescence intensity (a.u.)"}
{"sequence": "GAACTTTACCGAATTTGTAAATTAGATGTAAACTCATTTTCGGAGTCACCTAGTGCAG", "binding signal": "3580 fluorescence intensity (a.u.)"}
{"sequence": "ATCTTGATTGATGTTATTTAAATTATCTTGGTGTTGGTGCCGGAGTCACCTAGTGCAG", "binding signal": "48800 fluorescence intensity (a.u.)"}
{"sequence": "ATACACAATTGATTAATGGAGCCATCTATTAACACCAGCCCGGAGTCACCTAGTGCAG", "binding signal": "32100 fluorescence intensity (a.u.)"}
{"sequence": "TGTGATTGACACCAACATATACTCGATTCCAACAATCCAACGGAGTCACCTAGTGCAG", "binding signal": "44300 fluorescence intensity (a.u.)"}
{"sequence": "TGCTAATGTTGATTACATTCACCACTATCACTGGATCAAACGGAGTCACCTAGTGCAG", "binding signal": "9420 fluorescence intensity (a.u.)"}
{"sequence": "TACATAATTAACCTTTGGTATCACCTGTCATACACACATGCGGAGTCACCTAGTGCAG", "binding signal": "17500 fluorescence intensity (a.u.)"}
{"sequence": "TGACATAAACTGAATTTCATCCATCATCCACCAGCACTCGCGGAGTCACCTAGTGCAG", "binding signal": "3460 fluorescence intensity (a.u.)"}
{"sequence": "ATTTAATTGTTACGAATACAATGGTGTAATCGGATCATAGCGGAGTCACCTAGTGCAG", "binding signal": "24400 fluorescence intensity (a.u.)"}
{"sequence": "GCCACCTGATTGGAGTTTCTATTACAGTGCTCAATAGAAACGGAGTCACCTAGTGCAG", "binding signal": "25700 fluorescence intensity (a.u.)"}
{"sequence": "CCTGTGATTGCTCGGTAATATTAACTTGATCGCTTGCACACGGAGTCACCTAGTGCAG", "binding signal": "37600 fluorescence intensity (a.u.)"}
{"sequence": "AAATAAATTAATATAACTTATAAAGCAGCTTTTGTATAATCGGAGTCACCTAGTGCAG", "binding signal": "13600 fluorescence intensity (a.u.)"}
{"sequence": "ATATAAATTTTGGCTCCTAATTGACATCAATCCAAACACACGGAGTCACCTAGTGCAG", "binding signal": "25900 fluorescence intensity (a.u.)"}
{"sequence": "CTTAATTTGTCACCTAGTCTGAAATTCGCCCTGAACCACACGGAGTCACCTAGTGCAG", "binding signal": "26900 fluorescence intensity (a.u.)"}
{"sequence": "GTATTGATTTATTTTGGAAAGGGAGTGTGTGCGAGTTGTCCGGAGTCACCTAGTGCAG", "binding signal": "24900 fluorescence intensity (a.u.)"}
{"sequence": "CATATAAGTTATAATATAATTATGCTCTAACTGCATTATACGGAGTCACCTAGTGCAG", "binding signal": "8730 fluorescence intensity (a.u.)"}
{"sequence": "AGCCTAATTAAATCTTACACACAAAGAAACCAAAATTGGACGGAGTCACCTAGTGCAG", "binding signal": "7080 fluorescence intensity (a.u.)"}
{"sequence": "TATATTGATTTTGTTTGTTGCATATATACTGCAGCCATCTCGGAGTCACCTAGTGCAG", "binding signal": "24900 fluorescence intensity (a.u.)"}
